This is one part of the list.

Results on 40 sequences are retold here after paper PMC12820563, “FoxP3 forms a head-to-head dimer in vivo and stabilizes its multimerization on adjacent microsatellites”.

The target of the assay is T1, MBP-FoxP1dN (Mus musculus, UniProt P58462 326-579).
T1 sequence: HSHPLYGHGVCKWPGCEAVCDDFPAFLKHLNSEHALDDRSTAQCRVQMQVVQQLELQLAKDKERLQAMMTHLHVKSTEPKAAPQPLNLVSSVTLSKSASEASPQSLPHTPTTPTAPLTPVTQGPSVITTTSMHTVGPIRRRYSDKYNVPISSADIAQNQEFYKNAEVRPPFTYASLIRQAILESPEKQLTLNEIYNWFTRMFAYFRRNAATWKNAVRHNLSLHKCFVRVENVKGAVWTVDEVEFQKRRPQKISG
Briefly: PD-seq (MBP pull-down with sequencing); 20 mM Tris-HCl pH 7.5, 100 mM NaCl, 1.5 mM MgCl2, 0.4 uM protein, 0.1 uM dsDNA library, 30 min, room temperature, amylose pull-down; high values mean tight binding. The following applies: protein: recombinant; tags: His6-MBP; chain copies: 2; dsDNA, one strand shown. Summed up:
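His6-MBP-tagged mouse FoxP3 or FoxP1 fragment lacking the N-terminus, expressed in E. coli, was mixed at 0.4 µM with 0.1 µM Klenow-filled double-stranded degenerate DNA library. Incubation was 30 min at room temperature in Tris pH 7.5 buffer with NaCl and MgCl2. Complexes were caught on amylose resin and washed three times; DNA was released with proteinase K, PCR-barcoded and Illumina-sequenced. Binding is reads-per-million enrichment, pull-down over input, with replicates pooled.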
As to “GATGATTGTTCTCCCAGCTGATGAATTGCAGCGATCGAGTAAACAAATTTTCCTAATCTTTCTGTTCAAGCGCCATCTAC”, the binding signal was 1.02 RPM ratio (pull-down/input).

For the sequence “GATGATTGTTCTCCCAGCTGATGAATTCCTGCTCTCGAGTAAACAAATTTTCCTAATCTTTCTGTTCAAGCGCCATCTAC”, the binding signal was 0.771 RPM ratio (pull-down/input).

As to “GATGATTGTTCTCCCAGCTGATGAATTAGGTTACTCGAGTAAACAAATTTTCCTAATCTTTCTGTTCAAGCGCCATCTAC”, the binding signal was 0.929 RPM ratio (pull-down/input).

Consider “GATGATTGTTCTCCCAGCTGATGAATTGAATGTGTCGAGTAAACAAATTTTCCTAATCTTTCTGTTCAAGCGCCATCTAC”, for which the binding signal was 1.01 RPM ratio (pull-down/input).

In the case of “GATGATTGTTCTCCCAGCTGATGAATTTACTCTTTCGAGTAAACAAATTTTCCTAATCTTTCTGTTCAAGCGCCATCTAC”, the binding signal was 1.37 RPM ratio (pull-down/input).

On to “GATGATTGTTCTCCCAGCTGATGAATTCCTATTATCGAGTAAACAAATTTTCCTAATCTTTCTGTTCAAGCGCCATCTAC”, for which the binding signal is 1.33 RPM ratio (pull-down/input).

“GATGATTGTTCTCCCAGCTGATGAATTGTCTTACTCGAGTAAACAAATTTTCCTAATCTTTCTGTTCAAGCGCCATCTAC”: the binding signal was 1.09 RPM ratio (pull-down/input).

Regarding “GATGATTGTTCTCCCAGCTGATGAATTAGACTTCTCGAGTAAACAAATTTTCCTAATCTTTCTGTTCAAGCGCCATCTAC”, the binding signal was 0.789 RPM ratio (pull-down/input).

For “GATGATTGTTCTCCCAGCTGATGAATTCAGTACGTCGAGTAAACAAATTTTCCTAATCTTTCTGTTCAAGCGCCATCTAC”, the binding signal is 0.946 RPM ratio (pull-down/input).

For the sequence “GATGATTGTTCTCCCAGCTGATGAATTGCCGCAATCGAGTAAACAAATTTTCCTAATCTTTCTGTTCAAGCGCCATCTAC”, the binding signal was 1.16 RPM ratio (pull-down/input).

As for “GATGATTGTTCTCCCAGCTGATGAATTTGTGTTCTCGAGTAAACAAATTTTCCTAATCTTTCTGTTCAAGCGCCATCTAC”, the binding signal is 1.48 RPM ratio (pull-down/input).

With “GATGATTGTTCTCCCAGCTGATGAATTTATATATTCGAGTAAACAAATTTTCCTAATCTTTCTGTTCAAGCGCCATCTAC”, the binding signal was 1.26 RPM ratio (pull-down/input).

Consider “GATGATTGTTCTCCCAGCTGATGAATTGACTGGCTCGAGTAAACAAATTTTCCTAATCTTTCTGTTCAAGCGCCATCTAC”, for which the binding signal is 0.895 RPM ratio (pull-down/input).

Consider “GATGATTGTTCTCCCAGCTGATGAATTTAGAAGATCGAGTAAACAAATTTTCCTAATCTTTCTGTTCAAGCGCCATCTAC”, for which the binding signal was 0.978 RPM ratio (pull-down/input).

“GATGATTGTTCTCCCAGCTGATGAATTTTACACATCGAGTAAACAAATTTTCCTAATCTTTCTGTTCAAGCGCCATCTAC”: the binding signal was 1.11 RPM ratio (pull-down/input).

In the case of “GATGATTGTTCTCCCAGCTGATGAATTCATCACATCGAGTAAACAAATTTTCCTAATCTTTCTGTTCAAGCGCCATCTAC”, the binding signal is 1.16 RPM ratio (pull-down/input).

With “GATGATTGTTCTCCCAGCTGATGAATTTCGAGTGTCGAGTAAACAAATTTTCCTAATCTTTCTGTTCAAGCGCCATCTAC”, the binding signal is 0.87 RPM ratio (pull-down/input).

For the sequence “GATGATTGTTCTCCCAGCTGATGAATTGGGATCCTCGAGTAAACAAATTTTCCTAATCTTTCTGTTCAAGCGCCATCTAC”, the binding signal was 0.816 RPM ratio (pull-down/input).

“GATGATTGTTCTCCCAGCTGATGAATTCAGAGGCTCGAGTAAACAAATTTTCCTAATCTTTCTGTTCAAGCGCCATCTAC”: the binding signal was 0.812 RPM ratio (pull-down/input).

With “GATGATTGTTCTCCCAGCTGATGAATTGCGTGTATCGAGTAAACAAATTTTCCTAATCTTTCTGTTCAAGCGCCATCTAC”, the binding signal is 1.35 RPM ratio (pull-down/input).

Regarding “GATGATTGTTCTCCCAGCTGATGAATTGACGATATCGAGTAAACAAATTTTCCTAATCTTTCTGTTCAAGCGCCATCTAC”, the binding signal is 1.17 RPM ratio (pull-down/input).

Regarding “GATGATTGTTCTCCCAGCTGATGAATTGTAGGTGTCGAGTAAACAAATTTTCCTAATCTTTCTGTTCAAGCGCCATCTAC”, the binding signal is 0.949 RPM ratio (pull-down/input).

Consider “GATGATTGTTCTCCCAGCTGATGAATTCTTTTTTTCGAGTAAACAAATTTTCCTAATCTTTCTGTTCAAGCGCCATCTAC”, for which the binding signal was 1.07 RPM ratio (pull-down/input).

In the case of “GATGATTGTTCTCCCAGCTGATGAATTAGAGCCATCGAGTAAACAAATTTTCCTAATCTTTCTGTTCAAGCGCCATCTAC”, the binding signal was 0.924 RPM ratio (pull-down/input).

Take “GATGATTGTTCTCCCAGCTGATGAATTGCGAGTGTCGAGTAAACAAATTTTCCTAATCTTTCTGTTCAAGCGCCATCTAC”: the binding signal was 1.04 RPM ratio (pull-down/input).

“GATGATTGTTCTCCCAGCTGATGAATTCTTGGTTTCGAGTAAACAAATTTTCCTAATCTTTCTGTTCAAGCGCCATCTAC”: the binding signal is 0.962 RPM ratio (pull-down/input).

On to “GATGATTGTTCTCCCAGCTGATGAATTTCATGCATCGAGTAAACAAATTTTCCTAATCTTTCTGTTCAAGCGCCATCTAC”, for which the binding signal was 1.08 RPM ratio (pull-down/input).

Consider “GATGATTGTTCTCCCAGCTGATGAATTAAAAGTTTCGAGTAAACAAATTTTCCTAATCTTTCTGTTCAAGCGCCATCTAC”, for which the binding signal was 1.04 RPM ratio (pull-down/input).

In the case of “GATGATTGTTCTCCCAGCTGATGAATTCCACAATTCGAGTAAACAAATTTTCCTAATCTTTCTGTTCAAGCGCCATCTAC”, the binding signal was 1.01 RPM ratio (pull-down/input).

“GATGATTGTTCTCCCAGCTGATGAATTAAACGTTTCGAGTAAACAAATTTTCCTAATCTTTCTGTTCAAGCGCCATCTAC”: the binding signal was 0.922 RPM ratio (pull-down/input).

“GATGATTGTTCTCCCAGCTGATGAATTTTTGAAATCGAGTAAACAAATTTTCCTAATCTTTCTGTTCAAGCGCCATCTAC”: the binding signal was 1 RPM ratio (pull-down/input).

With “GATGATTGTTCTCCCAGCTGATGAATTGCGAGGCTCGAGTAAACAAATTTTCCTAATCTTTCTGTTCAAGCGCCATCTAC”, the binding signal is 0.959 RPM ratio (pull-down/input).

Turning to “GATGATTGTTCTCCCAGCTGATGAATTATGGGTATCGAGTAAACAAATTTTCCTAATCTTTCTGTTCAAGCGCCATCTAC”, the binding signal is 1.03 RPM ratio (pull-down/input).

As to “GATGATTGTTCTCCCAGCTGATGAATTGCTTAAGTCGAGTAAACAAATTTTCCTAATCTTTCTGTTCAAGCGCCATCTAC”, the binding signal was 0.985 RPM ratio (pull-down/input).

Regarding “GATGATTGTTCTCCCAGCTGATGAATTCGGCGGATCGAGTAAACAAATTTTCCTAATCTTTCTGTTCAAGCGCCATCTAC”, the binding signal was 0.783 RPM ratio (pull-down/input).

Turning to “GATGATTGTTCTCCCAGCTGATGAATTTGTTAAGTCGAGTAAACAAATTTTCCTAATCTTTCTGTTCAAGCGCCATCTAC”, the binding signal was 1.17 RPM ratio (pull-down/input).

Turning to “GATGATTGTTCTCCCAGCTGATGAATTGGGTTCATCGAGTAAACAAATTTTCCTAATCTTTCTGTTCAAGCGCCATCTAC”, the binding signal was 0.836 RPM ratio (pull-down/input).

For “GATGATTGTTCTCCCAGCTGATGAATTGTACAGTTCGAGTAAACAAATTTTCCTAATCTTTCTGTTCAAGCGCCATCTAC”, the binding signal is 0.975 RPM ratio (pull-down/input).

On to “GATGATTGTTCTCCCAGCTGATGAATTCTACCTATCGAGTAAACAAATTTTCCTAATCTTTCTGTTCAAGCGCCATCTAC”, for which the binding signal is 0.867 RPM ratio (pull-down/input).

For “GATGATTGTTCTCCCAGCTGATGAATTAACCCAATCGAGTAAACAAATTTTCCTAATCTTTCTGTTCAAGCGCCATCTAC”, the binding signal is 1.02 RPM ratio (pull-down/input).
